Experimental data reported in PubChem BioAssay AID2546 (National Center for Advancing Translational Sciences (NCATS), 2010).
The campaign covered roughly 310,000 compounds. About 11,000 (3.5%) were called active. The inconclusive results got no clear call from the source; some entries with a clear call stand among them for comparison. Calls follow the shape of the dose curve; as a rule, active = well fitted inhibition curve with a large enough effect; inconclusive = small, poorly fitted or top-dose-only effect, or effect the other way; inactive = flat fitted curve, though single readings scatter. No potency is given beside an inconclusive call; the fits are too rough.
% is scaled to controls: 0 for no effect and ±100 for the full control effect; potency is read from the fitted curve at half-maximal effect; tags tell the direction and shape of the fitted curve.

Assay: VP16 counterscreen qHTS for inhibitors of ROR gamma transcriptional activity;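 also: Gal4-VP16 expression switched on by copper sulfate through the metallothionein promoter; nearly all actives have a fitted effect of over 50% in size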
Details: Drosophila S2 Gal4-VP16 UAS-luciferase, luminescence, 20 h; activity, negative = inhibition: at 53.6 µM (top of the series)
With CCO/C=C1/C(=O)N(CC)c2ccccc21 the “activity, negative = inhibition” value was inactive: -0.737%.
In the case of Cc1ccc(C(=O)CSC2=NC(N)=C(C#N)C3(CCCCC3)C2C(N)=O)cc1 (stereo not given), the Potency is reported as inconclusive [inhibitor, partial curve, poor fit].
With COc1cccc(/C=N/c2oc(-c3ccccc3)cc2C#N)c1O the Potency was inconclusive [inhibitor, single point].
In the case of CCCOC(=O)c1ccc2c(c1)C(=O)N(c1ccccc1)C2=O, the “activity, negative = inhibition” value is reported as inactive: 1.88%.
For O=c1c2ccccc2nnn1CSc1nc2ccccc2[nH]1, the Potency was inconclusive [activator, full curve].
With C/C(=N\Nc1cccc2cccnc12)c1ccccn1 the Potency was active: 3.98 µM.
In the case of O=C(CCc1nc(-c2ccccc2Cl)no1)NC1CCCC1, the “activity, negative = inhibition” value is reported as inactive: 1.76%.
For Cc1[nH]c2ccccc2c1C(C[N+](=O)[O-])c1cccs1 (stereo not given), the “activity, negative = inhibition” value was inactive: -4.04%.
In the case of C=C1CCC[C@]2(C)C[C@H]3OC(=O)[C@H](CNCCc4ccccc4OC)C3CC12 (stereo not given in full), the Potency is reported as inconclusive [inhibitor, single point].
With CCOc1cc2c(cc1OC)C(NC(=O)C(F)(F)F)CC2=O (stereo not given) the “activity, negative = inhibition” value was inactive: -2.22%.
In the case of CC(=O)Nc1ccc(NC(=O)CCn2nnc3ccccc32)cc1, the “activity, negative = inhibition” value is reported as inactive: -7.97%.
For O=C(CNC(=O)c1cccs1)OCc1c(F)cccc1Cl, the Potency was inconclusive [activator, single point].
In the case of Cc1ccc([N+](=O)[O-])cc1-c1ccc(/C=C(\C#N)c2[nH]nc(N)c2C#N)o1, the Potency is reported as inconclusive [inhibitor, single point].
For CC(C)NC(=O)c1ccc(C2SCC(=O)N2Cc2ccccc2)cc1 (stereo not given), the Potency was inconclusive [inhibitor, partial curve, poor fit].
With Cc1ccc2nc(-c3ccccc3C)oc(=O)c2c1 the Potency was inconclusive [activator, single point].
In the case of O=C(Nc1ccc(-c2nc3ccccc3[nH]2)cc1)C1CCCO1 (stereo not given), the Potency is reported as active: 7.08 µM.
With O=C(CCCOc1ccc(Cl)cc1Cl)N1CCc2ccccc2C1 the Potency was inconclusive [inhibitor, single point].
For C/C(=N\NC(=O)c1ccc(O)cc1)c1ccc2c(c1)Nc1ccccc1S2, the Potency was inconclusive [inhibitor, partial curve].
For CC(NC(=S)Nc1cccc(F)c1)C(c1cccs1)N1CCOCC1 (stereo not given), the Potency was inconclusive [inhibitor, single point].
For O=C(COC(=O)CC(c1ccccc1)c1ccccc1)NCc1ccc(Cl)cc1, the Potency was active: 20 µM.
In the case of CCOc1ccc(NC(=S)NCCN2CCN(Cc3ccccc3)CC2)cc1, the Potency is reported as inconclusive [inhibitor, single point].
In the case of Cc1ccc(C(=O)NCC(=O)N2CCc3ccccc3C2)cc1C, the “activity, negative = inhibition” value is reported as inactive: -8.38%.
In the case of COc1ccc(N2CCN(CC(=O)Nc3ccc(SC(F)F)cc3)CC2)cc1, the Potency is reported as inconclusive [inhibitor, single point].
With Cc1ccc(-n2c3nc(=O)[nH]c(=O)c-3cc3cc([N+](=O)[O-])ccc32)cc1C the Potency was inconclusive [inhibitor, single point].
In the case of Cc1n[nH]c(=O)nc1N/N=C/c1ccc(O)c([N+](=O)[O-])c1, the Potency is reported as inconclusive [inhibitor, single point].
For O=C(c1ccccc1)c1ccc2c(c1)OCCOCCOCCOCCO2, the Potency was inconclusive [inhibitor, partial curve, poor fit].
In the case of CCOc1ccc(N)c(SSc2cc(OCC)ccc2N)c1, the Potency is reported as active: 6.31 µM.
For COCc1nnc(NC(=O)c2ccc(S(=O)(=O)N(CC(C)C)CC(C)C)cc2)o1, the Potency was active: 2.51 µM.
For C=C1C(=O)O[C@@H]2[C@@H]1CC/C(C)=C\CC[C@@]1(C)O[C@H]21, the Potency was active: 3.55 µM.
With Cc1cc(C)cc(NC(=S)N2CCN(c3ncccn3)CC2)c1 the Potency was inconclusive [inhibitor, single point].
For Cc1nn(-c2ccc(C(=O)O)cc2)c(N)c1-c1ccccc1, the Potency was inconclusive [inhibitor, single point].
With CCCc1cc(=O)n2[nH]c(-c3ccccc3)cc2n1 the Potency was inconclusive [activator, single point].
For CNC(=S)N/N=C(\C)c1ccc(N2CCOCC2)cc1, the Potency was inconclusive [inhibitor, single point].
With Cc1cc(-c2n[nH]c(=S)n2/N=C/c2ccc(C)s2)n[nH]1 the “activity, negative = inhibition” value was inactive: -8.72%.
In the case of Cc1ccc(CNC(=O)CCn2ccc3cc(S(=O)(=O)N4CCCC4)ccc32)cc1, the “activity, negative = inhibition” value is reported as inactive: 18.1%.
In the case of Cc1cc(C(=O)N/N=C\c2ccc(COc3ccc([N+](=O)[O-])cc3)o2)ccc1[N+](=O)[O-], the Potency is reported as inconclusive [inhibitor, single point].
With CCCc1cc(=O)oc2cc(C)cc(OCC(=O)N[C@@H](CSCc3ccccc3)C(=O)O)c12 the “activity, negative = inhibition” value was inactive: -1.71%.
In the case of Cc1ccc(C(C)C)c(OCC(=O)NC2CCN(C)CC2)c1, the “activity, negative = inhibition” value is reported as inactive: -1.75%.
For CCc1nnc(NC(=O)c2cc(-c3ccccc3)nn2-c2ccccc2)s1, the Potency was inconclusive [inhibitor, single point].
For C/C(N)=C(/C#N)C(=O)CSc1nnc(-c2ccc3c(c2)OCO3)o1, the Potency was inconclusive [inhibitor, full curve].
For Cc1ccc(S(=O)(=O)N(C)CCCC(=O)Nc2ccncc2)cc1, the Potency was inconclusive [inhibitor, single point].
In the case of COCCSc1ccccc1C(=O)Nc1ccccc1C(C)C, the “activity, negative = inhibition” value is reported as inactive: -13.4%.
For S=C(NCc1ccco1)Nc1ccccn1, the Potency was active: 12.6 µM.
In the case of COc1ccccc1C(=O)N/C(=C\c1ccccc1)C(=O)NCc1ccco1, the “activity, negative = inhibition” value is reported as inactive: 4.87%.
In the case of CC(=O)Nc1ccc(C(=O)NC2CCCC2)cc1, the “activity, negative = inhibition” value is reported as inactive: 6.57%.
In the case of CCn1c2ccccc2c2nnc(NN)nc21, the “activity, negative = inhibition” value is reported as inactive: 0.69%.
With CN1CCCC[C@@H]1CCN1c2ccccc2Sc2ccc(S(C)=O)cc21 (stereo not given in full) the Potency was inconclusive [inhibitor, single point].
For Cc1c(N=Cc2ccccn2)c(=O)n(-c2ccccc2)n1C, the “activity, negative = inhibition” value was inactive: 6.04%.
For Cc1oc(=O)c(NC(=O)c2ccccc2)cc1C(=O)c1ccccc1, the Potency was active: 12.6 µM.
For CC(C)C(=O)Nc1ccc(-c2csc(-c3ccccc3)n2)cc1, the “activity, negative = inhibition” value was inactive: 13.2%.
